Source: article PMC12820563, “FoxP3 forms a head-to-head dimer in vivo and stabilizes its multimerization on adjacent microsatellites”
This is one part of the list.

Each sequence was assayed against T1, MBP-FoxP1dN (Mus musculus, UniProt P58462 326-579) (assay: PD-seq (MBP pull-down with sequencing); 20 mM Tris-HCl pH 7.5, 100 mM NaCl, 1.5 mM MgCl2, 0.4 uM protein, 0.1 uM dsDNA library, 30 min, room temperature, amylose pull-down; high values mean tight binding). Conditions: protein: recombinant; tags: His6-MBP; chain copies: 2; dsDNA, one strand shown.
T1 sequence: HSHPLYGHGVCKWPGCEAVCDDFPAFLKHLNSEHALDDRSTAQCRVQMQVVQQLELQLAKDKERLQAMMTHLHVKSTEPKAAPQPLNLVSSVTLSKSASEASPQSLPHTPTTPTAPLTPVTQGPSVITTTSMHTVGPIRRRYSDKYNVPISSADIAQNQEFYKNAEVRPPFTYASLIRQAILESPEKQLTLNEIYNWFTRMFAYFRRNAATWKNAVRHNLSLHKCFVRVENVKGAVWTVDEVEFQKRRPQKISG
In short: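 Binding is the reads-per-million enrichment of pull-down relative to input, pooled across replicates. For this, 0.4 µM His6-MBP-tagged mouse FoxP3 or FoxP1 fragment lacking the N-terminus, made in E. coli, was incubated with 0.1 µM Klenow-filled double-stranded degenerate DNA library for 30 min at room temperature in Tris pH 7.5 buffer with NaCl and MgCl2. Complexes bound to amylose resin were washed three times before proteinase K released the DNA for PCR barcoding and Illumina sequencing.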

Sequence	binding signal
GATGATTGTTCTCCCAGCTGATGAATTCGTTCGATCGAGTAAACAAATTTTCCTAATCTTTCTGTTCAAGCGCCATCTAC	0.911 RPM ratio (pull-down/input)
GATGATTGTTCTCCCAGCTGATGAATTCGACGAGTCGAGTAAACAAATTTTCCTAATCTTTCTGTTCAAGCGCCATCTAC	0.772 RPM ratio (pull-down/input)
GATGATTGTTCTCCCAGCTGATGAATTAGGTGCCTCGAGTAAACAAATTTTCCTAATCTTTCTGTTCAAGCGCCATCTAC	0.973 RPM ratio (pull-down/input)
GATGATTGTTCTCCCAGCTGATGAATTATACTGATCGAGTAAACAAATTTTCCTAATCTTTCTGTTCAAGCGCCATCTAC	0.951 RPM ratio (pull-down/input)
GATGATTGTTCTCCCAGCTGATGAATTGGGTTGATCGAGTAAACAAATTTTCCTAATCTTTCTGTTCAAGCGCCATCTAC	0.956 RPM ratio (pull-down/input)
GATGATTGTTCTCCCAGCTGATGAATTGGTTTCGTCGAGTAAACAAATTTTCCTAATCTTTCTGTTCAAGCGCCATCTAC	0.978 RPM ratio (pull-down/input)
GATGATTGTTCTCCCAGCTGATGAATTGAAGGTATCGAGTAAACAAATTTTCCTAATCTTTCTGTTCAAGCGCCATCTAC	0.906 RPM ratio (pull-down/input)
GATGATTGTTCTCCCAGCTGATGAATTTGTTTGCTCGAGTAAACAAATTTTCCTAATCTTTCTGTTCAAGCGCCATCTAC	2.43 RPM ratio (pull-down/input)
GATGATTGTTCTCCCAGCTGATGAATTTAGCGCCTCGAGTAAACAAATTTTCCTAATCTTTCTGTTCAAGCGCCATCTAC	0.94 RPM ratio (pull-down/input)
GATGATTGTTCTCCCAGCTGATGAATTCGGATCCTCGAGTAAACAAATTTTCCTAATCTTTCTGTTCAAGCGCCATCTAC	0.725 RPM ratio (pull-down/input)
GATGATTGTTCTCCCAGCTGATGAATTCCACGCGTCGAGTAAACAAATTTTCCTAATCTTTCTGTTCAAGCGCCATCTAC	0.96 RPM ratio (pull-down/input)
GATGATTGTTCTCCCAGCTGATGAATTGGGGCTGTCGAGTAAACAAATTTTCCTAATCTTTCTGTTCAAGCGCCATCTAC	0.812 RPM ratio (pull-down/input)
GATGATTGTTCTCCCAGCTGATGAATTGAGATGTTCGAGTAAACAAATTTTCCTAATCTTTCTGTTCAAGCGCCATCTAC	0.906 RPM ratio (pull-down/input)
GATGATTGTTCTCCCAGCTGATGAATTACCCTTATCGAGTAAACAAATTTTCCTAATCTTTCTGTTCAAGCGCCATCTAC	0.979 RPM ratio (pull-down/input)
GATGATTGTTCTCCCAGCTGATGAATTTATTGGGTCGAGTAAACAAATTTTCCTAATCTTTCTGTTCAAGCGCCATCTAC	1.2 RPM ratio (pull-down/input)
GATGATTGTTCTCCCAGCTGATGAATTGCCGGTGTCGAGTAAACAAATTTTCCTAATCTTTCTGTTCAAGCGCCATCTAC	0.916 RPM ratio (pull-down/input)

Sequence	binding signal
GATGATTGTTCTCCCAGCTGATGAATTCCAAAACTCGAGTAAACAAATTTTCCTAATCTTTCTGTTCAAGCGCCATCTAC	0.884 RPM ratio (pull-down/input)
GATGATTGTTCTCCCAGCTGATGAATTCTCTTCTTCGAGTAAACAAATTTTCCTAATCTTTCTGTTCAAGCGCCATCTAC	0.954 RPM ratio (pull-down/input)
GATGATTGTTCTCCCAGCTGATGAATTGATCGAGTCGAGTAAACAAATTTTCCTAATCTTTCTGTTCAAGCGCCATCTAC	0.863 RPM ratio (pull-down/input)
GATGATTGTTCTCCCAGCTGATGAATTAGGAATTTCGAGTAAACAAATTTTCCTAATCTTTCTGTTCAAGCGCCATCTAC	0.923 RPM ratio (pull-down/input)
GATGATTGTTCTCCCAGCTGATGAATTGGGCCGATCGAGTAAACAAATTTTCCTAATCTTTCTGTTCAAGCGCCATCTAC	0.818 RPM ratio (pull-down/input)
GATGATTGTTCTCCCAGCTGATGAATTAGTACCATCGAGTAAACAAATTTTCCTAATCTTTCTGTTCAAGCGCCATCTAC	1.11 RPM ratio (pull-down/input)
GATGATTGTTCTCCCAGCTGATGAATTCACGTCGTCGAGTAAACAAATTTTCCTAATCTTTCTGTTCAAGCGCCATCTAC	0.801 RPM ratio (pull-down/input)
GATGATTGTTCTCCCAGCTGATGAATTAATCGCGTCGAGTAAACAAATTTTCCTAATCTTTCTGTTCAAGCGCCATCTAC	1.01 RPM ratio (pull-down/input)
GATGATTGTTCTCCCAGCTGATGAATTAACAACGTCGAGTAAACAAATTTTCCTAATCTTTCTGTTCAAGCGCCATCTAC	1.16 RPM ratio (pull-down/input)
GATGATTGTTCTCCCAGCTGATGAATTAAGGGCTTCGAGTAAACAAATTTTCCTAATCTTTCTGTTCAAGCGCCATCTAC	0.874 RPM ratio (pull-down/input)
GATGATTGTTCTCCCAGCTGATGAATTCTCCCCCTCGAGTAAACAAATTTTCCTAATCTTTCTGTTCAAGCGCCATCTAC	0.816 RPM ratio (pull-down/input)
GATGATTGTTCTCCCAGCTGATGAATTTCTGGATTCGAGTAAACAAATTTTCCTAATCTTTCTGTTCAAGCGCCATCTAC	0.863 RPM ratio (pull-down/input)
GATGATTGTTCTCCCAGCTGATGAATTGTACTCGTCGAGTAAACAAATTTTCCTAATCTTTCTGTTCAAGCGCCATCTAC	0.916 RPM ratio (pull-down/input)
GATGATTGTTCTCCCAGCTGATGAATTTGATATATCGAGTAAACAAATTTTCCTAATCTTTCTGTTCAAGCGCCATCTAC	0.995 RPM ratio (pull-down/input)
GATGATTGTTCTCCCAGCTGATGAATTGACGATGTCGAGTAAACAAATTTTCCTAATCTTTCTGTTCAAGCGCCATCTAC	1.09 RPM ratio (pull-down/input)
GATGATTGTTCTCCCAGCTGATGAATTTAGGCTATCGAGTAAACAAATTTTCCTAATCTTTCTGTTCAAGCGCCATCTAC	0.955 RPM ratio (pull-down/input)
